The supplement of paper PMC7436455
Some of the results follow. Cut-off read from the data, not from the text of the source: only hits are listed; in these data all have Qbind below 0.67. Single values are uncertain, as repeats are few or missing.

How the values were obtained:
Experiment in all cases: Qbind: 19F CPMG 200 ms/0 ms integral ratio with target relative to without target; higher = weaker binding (less relaxation enhancement by target)
[1] = tested on: Adenine-sensing riboswitch
[2] = tested on: HDV ribozyme (70 nt)
[3] = tested on: Hammerhead ribozyme (54 nt)
[4] = tested on: PtkA (30 kDA)
[5] = tested on: Ribosomal protein S1 (61 kDa)
[6] = tested on: T7 RNAP (100kDA)
[7] = tested on: TPP-sensing riboswitch tenA
[8] = tested on: TPP-sensing riboswitch thiM (80)
[9] = tested on: Tel26 G-quadruplex (26 nt)
[10] = tested on: Translation initiation region (60 nt)
[11] = tested on: ZMP-sensing riboswitch
[12] = tested on: cGAMP-sensing riboswitch
[13] = tested on: cKit G-quadruplex (24 nt)
[14] = tested on: cMyc G-quadruplex (22 nt)
[15] = tested on: wtTel26 G-quadruplex (26 nt)
[16] = tested on: tRNA (77nt)
[17] = tested on: EphA2 (34 kDA)
[18] = tested on: Guanidine-II-sensing riboswitch
[19] = tested on: MptpA (18 kDa); conditions: 19F shift (ppm): -123.0535
[20] = tested on: c-di-GMP-sensing riboswitch (98 nt)
[21] = tested on: Terminator stem (39 nt)
[22] = tested on: GAAG hairpin (14 nt)
[23] = tested on: CUUG hairpin (14 nt); conditions: 19F shift (ppm): -134.119
[24] = tested on: DNA duplex (24 nt); conditions: 19F shift (ppm): -114.9211

Measured: Qbind: 19F CPMG 200 ms/0 ms integral ratio

COc1cccc(C(=O)Nc2ccccc2F)c1
active: [1]; 19F shift (ppm): -123.0231 = 0.24 | [2]; 19F shift (ppm): -123.0231 = 0.522 | [3]; 19F shift (ppm): -123.0231 = 0.558 | [4]; 19F shift (ppm): -122.85 = -0.204 | [5]; 19F shift (ppm): -122.9511 = -0.116 | [6]; 19F shift (ppm): -122.9511 = 0.115 | [7]; 19F shift (ppm): -123.0184 = -0.031 | [8]; 19F shift (ppm): -123.0184 = -0.0132 | [9]; 19F shift (ppm): -123.0818 = 0.06 | [10]; 19F shift (ppm): -123.0231 = 0.178 | [11]; 19F shift (ppm): -122.9511 = 0.251 | [12]; 19F shift (ppm): -122.9511 = 0.448 | [13]; 19F shift (ppm): -123.0818 = 0.25 | [14]; 19F shift (ppm): -123.0818 = -0.0274 | [15]; 19F shift (ppm): -123.0818 = -0.102

Nc1cc(C(F)(F)F)ccc1N1CCCCC1
active: [4]; 19F shift (ppm): -61.6633 = -0.0269 | [5]; 19F shift (ppm): -61.7189 = -0.0593 | [6]; 19F shift (ppm): -61.7189 = 0.00224 | [16]; 19F shift (ppm): -61.7801 = 0.547

COc1ccc(C(=O)Nc2ccccc2F)cc1
active: [1]; 19F shift (ppm): -123.1254 = -0.0536 | [17]; 19F shift (ppm): -123.1156 = -0.19 | [18]; 19F shift (ppm): -123.1156 = 0.297 | [2]; 19F shift (ppm): -123.1254 = 0.364 | [19] 0.252 | [4]; 19F shift (ppm): -122.9419 = 0.177 | [5]; 19F shift (ppm): -123.0852 = 0.175 | [6]; 19F shift (ppm): -121.8878 = 0.324 | [7]; 19F shift (ppm): -123.1156 = -0.149 | [8]; 19F shift (ppm): -123.1156 = -0.0253 | [9]; 19F shift (ppm): -123.159 = -0.0293 | [10]; 19F shift (ppm): -123.1254 = 0.0509 | [11]; 19F shift (ppm): -123.0852 = 0.0867 | [20]; 19F shift (ppm): -123.0852 = 0.112 | [12]; 19F shift (ppm): -123.0852 = -0.0178 | [13]; 19F shift (ppm): -123.159 = -0.105 | [14]; 19F shift (ppm): -123.159 = -0.254 | [16]; 19F shift (ppm): -123.1254 = 0.629 | [15]; 19F shift (ppm): -123.159 = 0.0169

NC(=S)Nc1ccc(OC(F)(F)F)cc1
active: [4]; 19F shift (ppm): -57.7518 = 0.183

N#Cc1ccc(CNCc2ccc(F)cc2)cc1
active: [1]; 19F shift (ppm): -112.179 = 0.486 | [7]; 19F shift (ppm): -112.1461 = 0.524

O=C(CN1CCCC1)Nc1ccc(F)cc1
active: [1]; 19F shift (ppm): -116.4464 = 0.456 | [6]; 19F shift (ppm): -116.4599 = 0.285 | [7]; 19F shift (ppm): -116.4225 = 0.5 | [11]; 19F shift (ppm): -116.4225 = 0.634 | [13]; 19F shift (ppm): -116.486 = 0.188 | [14]; 19F shift (ppm): -116.486 = 0.395

O=C(Nc1nncs1)c1ccccc1F
active: [1]; 19F shift (ppm): -113.9483 = 0.1 | [2]; 19F shift (ppm): -113.9483 = 0.65 | [7]; 19F shift (ppm): -113.8229 = 0.032 | [8]; 19F shift (ppm): -113.8229 = 0.0101 | [9]; 19F shift (ppm): -114.1176 = 0.224 | [11]; 19F shift (ppm): -113.8549 = 0.0311 | [20]; 19F shift (ppm): -113.8549 = 0.2 | [12]; 19F shift (ppm): -113.8549 = 0.194 | [13]; 19F shift (ppm): -114.1176 = -0.0288 | [14]; 19F shift (ppm): -114.1176 = 0.217 | [16]; 19F shift (ppm): -113.9483 = 0.523 | [15]; 19F shift (ppm): -114.1176 = 0.371

Fc1cccnc1NCC1CCOCC1
active: [18]; 19F shift (ppm): -139.243 = 0.589 | [21]; 19F shift (ppm): -139.178 = 0.207

NC(=S)Nc1ccccc1OC(F)(F)F
active: [22]; 19F shift (ppm): -57.9957 = 0.648

Fc1ccc(NC2CCOCC2)nc1
active: [18]; 19F shift (ppm): -142.569 = 0.505 | [9]; 19F shift (ppm): -142.6611 = 0.494 | [11]; 19F shift (ppm): -142.591 = 0.574

COc1ccc(NCc2ccc(F)cc2)cc1
active: [1]; 19F shift (ppm): -116.07 = 0.643 | [4]; 19F shift (ppm): -116.1917 = -0.019 | [5]; 19F shift (ppm): -116.2222 = 0.328 | [6]; 19F shift (ppm): -116.2222 = 0.048 | [7]; 19F shift (ppm): -116.018 = 0.325 | [9]; 19F shift (ppm): -116.1947 = 0.628 | [13]; 19F shift (ppm): -116.1947 = 0.614 | [14]; 19F shift (ppm): -116.1947 = 0.323 | [15]; 19F shift (ppm): -116.1947 = 0.638

O=C(COc1ccccc1)Nc1cccc(F)c1
active: [1]; 19F shift (ppm): -112.222 = 0.611 | [7]; 19F shift (ppm): -112.1773 = 0.652 | [9]; 19F shift (ppm): -112.1721 = 0.464 | [11]; 19F shift (ppm): -112.194 = 0.524 | [13]; 19F shift (ppm): -112.1721 = 0.107 | [14]; 19F shift (ppm): -112.1721 = 0.163 | [15]; 19F shift (ppm): -112.1721 = 0.504

Cn1nnc(NC(=O)c2ccc(F)cc2)n1
active: [1]; 19F shift (ppm): -106.1934 = 0.346 | [7]; 19F shift (ppm): -106.1469 = 0.194 | [8]; 19F shift (ppm): -106.1469 = 0.599 | [9]; 19F shift (ppm): -106.2728 = 0.5 | [11]; 19F shift (ppm): -106.1469 = 0.25 | [20]; 19F shift (ppm): -106.1469 = 0.572 | [12]; 19F shift (ppm): -106.1469 = 0.604 | [13]; 19F shift (ppm): -106.2728 = 0.47 | [14]; 19F shift (ppm): -106.2728 = 0.226

O=C(Nc1ccc(F)cc1)Nc1ccc(F)cc1
active: [1]; 19F shift (ppm): -64.6505 = 0.0443 | [22]; 19F shift (ppm): -64.6007 = 0.592 | [18]; 19F shift (ppm): -64.571 = 0.614 | [2]; 19F shift (ppm): -64.6505 = 0.479 | [4]; 19F shift (ppm): -64.2219 = 0.0869 | [6]; 19F shift (ppm): -64.3672 = -0.108 | [7]; 19F shift (ppm): -64.571 = 0.127 | [8]; 19F shift (ppm): -64.571 = 0.635 | [10]; 19F shift (ppm): -64.6505 = 0.0953 | [11]; 19F shift (ppm): -64.571 = 0.36 | [20]; 19F shift (ppm): -64.571 = 0.364 | [12]; 19F shift (ppm): -64.571 = 0.49 | [13]; 19F shift (ppm): -64.4382 = 0.465 | [14]; 19F shift (ppm): -64.4382 = 0.338 | [16]; 19F shift (ppm): -64.6505 = 0.587

FC(F)(F)c1ccc(CN2CCOCC2)cc1
active: [4]; 19F shift (ppm): -62.0447 = -0.00711

CC1COCCN1Cc1ccccc1F (configuration not stated)
active: [1]; 19F shift (ppm): -112.926 = 0.597 | [8]; 19F shift (ppm): -112.865 = 0.529 | [8]; 19F shift (ppm): -115.3702 = 0.555 | [9]; 19F shift (ppm): -112.8651 = 0.0904 | [11]; 19F shift (ppm): -112.865 = 0.609 | [13]; 19F shift (ppm): -112.8651 = -0.241 | [14]; 19F shift (ppm): -112.8651 = -0.0534 | [15]; 19F shift (ppm): -112.8651 = 0.141

Cc1ncc(CNc2cncc(F)c2)s1
active: [17]; 19F shift (ppm): -126.5887 = 0.225 | [22]; 19F shift (ppm): -126.6046 = 0.534 | [7]; 19F shift (ppm): -126.5887 = -0.237 | [8]; 19F shift (ppm): -126.5887 = 0.0726

Cc1nnc(CN2CCC=C(F)C2)s1
active: [18]; 19F shift (ppm): -112.396 = 0.657 | [6]; 19F shift (ppm): -113.7985 = 0.275 | [8]; 19F shift (ppm): -112.396 = 0.592

CNCc1ccc(C(F)(F)F)cc1
active: [4]; 19F shift (ppm): -62.3827 = 0.302

CC(C)(C)CC(=O)Nc1ccc(F)cc1F
active: [4]; 19F shift (ppm): -116.6943 = -0.109

CCNC(=O)c1ccc(N(C)C)c(F)c1
active: [1]; 19F shift (ppm): -121.592 = 0.615 | [7]; 19F shift (ppm): -121.5553 = 0.653 | [11]; 19F shift (ppm): -121.528 = 0.662

CC1(C)CN(c2ncccc2F)CC1O (configuration not stated)
active: [23] 0.651 | [6]; 19F shift (ppm): -134.368 = 0.177 | [12]; 19F shift (ppm): -134.0324 = 0.366

C[C@@H]1CC[C@H](C(=O)N2CCC=C(F)C2)O1
active: [24] 0.524 | [3]; 19F shift (ppm): -114.957 = 0.488 | [7]; 19F shift (ppm): -114.896 = 0.57 | [9]; 19F shift (ppm): -114.9211 = 0.566

Fc1cccc(CNCc2ccco2)c1
active: [18]; 19F shift (ppm): -112.417 = 0.643 | [7]; 19F shift (ppm): -112.417 = 0.654 | [8]; 19F shift (ppm): -112.417 = 0.664 | [21]; 19F shift (ppm): -112.4742 = 0.612
